# Assay results: the RNAGym collection of RNA variant scans (doi:10.1073/pnas.2313332121)
# Variants at the floor of the assay are shown more often than the library holds them.
# B1: TPR 5TU (parent)
# chain: GGAUCUUCUCGAUCUAACAAAAAAGACAAAUCUGCCACAAAGCUUGAGAGCAUCUUCGGAUGCAGAGGCGGCAGCCUUCGGUGGCGCGAUAGCGCCAACGUUCUCAACUAUGACACGCAAAACGCGUGCUCCGUUGAAUGGAGUUUAUCAUG
# Variants of: B1
# Assay: polymerase ribozyme fitness, log enrichment relative to wild type (log ratio); higher = more active; in vitro selection for triplet polymerase activity
# In short: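 Each subunit of a heterodimeric triplet polymerase ribozyme was mutagenized into a library by PCR, transcribed, and subjected to one round of in vitro selection, run in triplicate. Libraries were annealed with a biotinylated primer, the partner subunit and triplets, incubated frozen at −7 °C, and extended constructs were gel-excised, captured on streptavidin beads and recovered by RT-PCR. Input and output libraries were sequenced on Illumina, keeping genotypes with ≥10 input reads and ≥1 read per output. Fitness is log base 2 of genotype enrichment divided by wild-type enrichment, from inverse-variance-weighted replicate averages.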
row,Variant,polymerase ribozyme fitness (log ratio)
1,A22C C38U A52U G92A U104C C116G G124A,≤ -4.2
2,A22C C38U C69U C85U,-1.31
3,A22C C43U G68A G80C G88U G92C G124U,≤ -4.2
4,A22C C54U G84U U104G C114G G133U,≤ -4.2
5,A22C C54U G92A C116G U127C A147C C149U,≤ -4.2
6,A22C C57A A106G G141C,-0.358
7,A22C C87U,-0.775
8,A22C C114A,-3.5
9,A22C G25A U45A C51U U61C C96G U144C,≤ -4.2
10,A22C G25A U55G G92U G136U,≤ -4.2
11,A22C G25U A28U A47C G58C C93U G94C,≤ -4.2
12,A22C G42A G70C G94A A106C A115U,≤ -4.2
13,A22C G46A A47C C79A G88A C118G A142G,≤ -4.2
14,A22C G50A C63A C69G A89G U127G G141U A142U,≤ -4.2
15,A22C G50U G67C C93G U144C,≤ -4.2
16,A22C G58C G70U U134C,-3.68
17,A22C G68U G83A G117A,≤ -4.2
18,A22C G84A G136C C149A,≤ -4.2
19,A22C G88A,≤ -4.2
20,A22C G92C,-1.73
21,A22C G141U,1.81
22,A22C U33C G88A A97C C131G,≤ -4.2
23,A22C U33G G50C U78A C87A G126A U135A U144G,-3.83
24,A22C U44A C75U G94A C131U,≤ -4.2

row,Variant,polymerase ribozyme fitness (log ratio)
1,A22C U45A,-2.58
2,A22C U45G C51G G58A G67A C118A U134C,≤ -4.2
3,A22C U53G C93A,≤ -4.2
4,A22C U55G A60G U101A C118G,-0.937
5,A22C U56A C87G U101G,≤ -4.2
6,A22C U77G C132U,≤ -4.2
7,A22G A23C U55A G128U,≤ -4.2
8,A22G A23G G50U A52C C57U G59U C96A C99U G143C,≤ -4.2
9,A22G A26C G88U U145G,≤ -4.2
10,A22G A30U C36G G83C U146G,≤ -4.2
11,A22G A39G G88A A122U U148A,≤ -4.2
12,A22G A39U G46U A49U A64G U77A C93A A150G,≤ -4.2
13,A22G A40C U139G,0.649
14,A22G A52G G94A C95G C96G G140U U146G,≤ -4.2
15,A22G A52U C85U U109G,-3.97
16,A22G A52U G84A C123A,-2.11
17,A22G A113C,-2.12
18,A22G C27U A47U U56G C57G U77A C93A G143A,≤ -4.2
19,A22G C36G G92A A137G,≤ -4.2
20,A22G C54A A60C U78G U90G A91G C116U G143A,≤ -4.2
21,A22G C54U G88U U90G A137U U144A,≤ -4.2
22,A22G C72G C87U C93A C99A,≤ -4.2
23,A22G C85G,-2.32
24,A22G C85U,-0.836

row,Variant,polymerase ribozyme fitness (log ratio)
1,A22G C85U C95G U135G,-3.76
2,A22G G42A U61A G62A G68A A91U C132G G141A G152C,≤ -4.2
3,A22G G42C C75A A89C G92A U109A C125A,≤ -4.2
4,A22G G50A C76U C87U A110G G143U,≤ -4.2
5,A22G G59A A60C C85A G94A C105U G126A,-4.1
6,A22G G68C A73U A89U G94A,≤ -4.2
7,A22G U33C A64G A73U G88U,≤ -4.2
8,A22G U45A C63A C96U U146G,≤ -4.2
9,A22G U45A C87G C93G U102C A119G A121G G133U G143C U151G G152A,≤ -4.2
10,A22G U55A A89C,-0.257
11,A22G U55G C57U G84U C85A,-0.696
12,A22G U77A,≤ -4.2
13,A22G U90G G133C G141C,≤ -4.2
14,A22U A23C A24C G48C G67U G86U C95G C96U C114G C118G,≤ -4.2
15,A22U A23C A49G U61A G74U A89C U102G,≤ -4.2
16,A22U A24C A39C,≤ -4.2
17,A22U A24G U33G U101G A107U,≤ -4.2
18,A22U A24U C54G G65U G84A,≤ -4.2
19,A22U A24U G58C A89U G143C,-2.7
20,A22U A26U C129G G140U,≤ -4.2
21,A22U A28C G81C G100U,≤ -4.2
22,A22U A28U G84U,≤ -4.2
23,A22U A28U U31A A39U A40C A41U A142U G152U,≤ -4.2
24,A22U A29C G50A U56A G84A C95G,≤ -4.2

row,Variant,polymerase ribozyme fitness (log ratio)
1,A22U A30C G81A C116G,-3.8
2,A22U A30U A73U G88A C123U,≤ -4.2
3,A22U A30U C32G A60C A142U U145G,≤ -4.2
4,A22U A39G A41G C54A C105A U127G,≤ -4.2
5,A22U A39U A41G A52C G83U G94A G152C,-4.02
6,A22U A39U C57U G59A U101G U148C A150C,≤ -4.2
7,A22U A39U G133C U148G C149A,≤ -4.2
8,A22U A47U U53G U55A C57U G68A G86C C99U A138C U148G,≤ -4.2
9,A22U A49U U82A G83U G136C,≤ -4.2
10,A22U A60U C79A C87A,≤ -4.2
11,A22U A89U C118U C131U C149G,≤ -4.2
12,A22U A121U A137C A142C,≤ -4.2
13,A22U C27G A73C C96U U145G,≤ -4.2
14,A22U C27G C76A G83C C87A C103G C105G C131A U148A,≤ -4.2
15,A22U C27U C36U A98U,-3.64
16,A22U C35G G62C C63U A64C A107C C116G,≤ -4.2
17,A22U C35U U45A G48C A89G C95G U139C G140A G141U A142C,≤ -4.2
18,A22U C36U G74C G92A A119U A120G G126C G141U,≤ -4.2
19,A22U C38U C57U G94C G126U,-0.0445
20,A22U C54U,0.174
21,A22U C54U U55A,0.0331
22,A22U C57U G84U G94U G128A U145C,≤ -4.2
23,A22U C69G C72G G83C G133C,≤ -4.2
24,A22U C69G C75U C93U U101C U127A,≤ -4.2

row,Variant,polymerase ribozyme fitness (log ratio)
1,A22U C69U C93A U102G C103G,≤ -4.2
2,A22U C75A G81C C87U A150U,≤ -4.2
3,A22U C76G C87G U101G G140C,-4.19
4,A22U C87U G141U,1.15
5,A22U C93A,-2.34
6,A22U C96G,-0.148
7,A22U C99G C118G A121G U151G,≤ -4.2
8,A22U C103G A110C,≤ -4.2
9,A22U C114A,-3.29
10,A22U G25C C57A C76A C93A A137U G152U,≤ -4.2
11,A22U G42A U55A C85U G124C,≤ -4.2
12,A22U G46A U55A C75A C85A U90A C103G C114G G128A,≤ -4.2
13,A22U G46C A73U,-3.61
14,A22U G50C C93U C118G,≤ -4.2
15,A22U G58C G70A G86U U90C A98U A107U C125U,≤ -4.2
16,A22U G58C G92U G124C,-0.925
17,A22U G59A A66U G86A A120G A138G,≤ -4.2
18,A22U G67U C72G C96A,≤ -4.2
19,A22U G71A G80A G84A G92C A138U,≤ -4.2
20,A22U G71U C125A,≤ -4.2
21,A22U G81A A106C G128A U139C,-3.92
22,A22U G86A C93G C99A A138C,≤ -4.2
23,A22U G126A,1.07
24,A22U G141A,2.05

row,Variant,polymerase ribozyme fitness (log ratio)
1,A22U U33C A40U U61A A89G U134A A137C,≤ -4.2
2,A22U U33G A52C C54U C96G,≤ -4.2
3,A22U U44C C96A G100A,≤ -4.2
4,A22U U44G U45A C75U C95G C96U G140U,≤ -4.2
5,A22U U45A C54U A64C U101G,≤ -4.2
6,A22U U45A G68A A122G G140U U146A,≤ -4.2
7,A22U U55A C85G,-2.29
8,A22U U55A C96U,-0.172
9,A22U U56A A64G A122U C123G A150G,≤ -4.2
10,A22U U56A G92A,-3.22
11,A22U U144A,0.777
12,A22U U148A,-2.76
13,A23C A24C G58A U90G A91G A138G,≤ -4.2
14,A23C A24C U61G A110U,≤ -4.2
15,A23C A24G A26U G50C C54U A113U,≤ -4.2
16,A23C A28C A49C C69G G80U A97U A98C C103G A106G C132A U151A,≤ -4.2
17,A23C A29G C85A A120G,≤ -4.2
18,A23C A29U G68C U82G G133U U134A A138U,≤ -4.2
19,A23C A30G U55G C96A G117U,≤ -4.2
20,A23C A30U G50A C54A G86A,≤ -4.2
21,A23C A37C U45A C54U C76G C95U A106U C108U,≤ -4.2
22,A23C A39C C76A A97G G143C,-3.82
23,A23C A39U C43A U56G G62A C87A C99U C103U,≤ -4.2
24,A23C A40G G50C G59C U102G U109G G117A,≤ -4.2

row,Variant,polymerase ribozyme fitness (log ratio)
1,A23C A40U C79G U109C,≤ -4.2
2,A23C A41U G68U C93U A106G,≤ -4.2
3,A23C A41U G84C C85G C95U,≤ -4.2
4,A23C A47C C76A G84U G124A,≤ -4.2
5,A23C A52G C96A U144G,≤ -4.2
6,A23C A60U G88C C93U,≤ -4.2
7,A23C A98G U127C,≤ -4.2
8,A23C C27G A60G A97C G124U,≤ -4.2
9,A23C C35G G58A C95A C99A C149U,≤ -4.2
10,A23C C36G G42A C96U C131A,≤ -4.2
11,A23C C38A C51U U55C A73G G92U C131U A138C,≤ -4.2
12,A23C C38U A39U A41C U145G,≤ -4.2
13,A23C C38U G50U U55A U56A G88A A106G G141A U144G,≤ -4.2
14,A23C C38U G67C G140A,≤ -4.2
15,A23C C43A G83C G86U C96U,≤ -4.2
16,A23C C51A C93U,≤ -4.2
17,A23C C54U U56A G71A G80C A121G,≤ -4.2
18,A23C C87A,≤ -4.2
19,A23C C87G A91G C99A C103G,≤ -4.2
20,A23C C93A C108U G143U,≤ -4.2
21,A23C C95U,-4.12
22,A23C C96A C105A U148C,≤ -4.2
23,A23C G25C G34A U45A A60G C72G U90A G92A,≤ -4.2
